{"source": "PubChem BioAssay AID588855", "about": "(National Center for Advancing Translational Sciences (NCATS), 2011)", "note": "Screen size: about 410,000 compounds; about 5,000 (1.2%) were called active. The shares of active, inactive and inconclusive entries below differ from those in the screen. Calls follow the shape of the dose curve; as a rule, active = well fitted inhibition curve with a large enough effect; inconclusive = small, poorly fitted or top-dose-only effect; inactive = no such curve, though single readings can be large or run the other way. Where the call is inconclusive, the potency comes from a doubtful curve fit. Peptide text beside a SMILES is read from it. * marks the point of attachment. Boc = CC(C)(C)OC(=O)*; Bn = c1ccc(C*)cc1; NHNH2 = NN*"}
{"experiment": "qHTS for Inhibitors of TGF-b; also: nearly all actives have a fitted effect of over 65% in size; also: potency is read from the fitted curve at half-maximal effect; tags tell the direction and shape of the fitted curve", "conditions": "HepG2 CAGA-GFP TGF-b/SMAD3 reporter, GFP fluorescence, 18 h, TGF-beta stimulated, 500 pg/mL final; series mostly up to 46.1 µM", "procedure,_shortened": "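HEPG2 CAGA-GFP, 1000 cells/well; 2 h settle, 37 C; cpd via pin tool; TGF-b 500 pg/mL final; 18 h, 37 C; GFP imaging ex488/em500-530; %Activity normalised to -TGF-b and +DMSO controls; CRC fit, curve class.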"}
{"compound": "COc1cc(C[C@@H](C)[C@@H](C)Cc2ccc(O)c(OC)c2)ccc1O", "Potency": "inconclusive: 35.5 µM [inhibitor, single point]"}
{"compound": "Cc1ccc(Cl)cc1N1CCN(C(=O)c2ccc(CS(=O)(=O)c3ccccc3C)o2)CC1", "Potency": "inconclusive: 8.91 µM [inhibitor, partial curve, poor fit]"}
{"compound": "CCN(CC)S(=O)(=O)c1ccc(N=Nc2cc(C)cc(Br)c2O)cc1", "Potency": "inactive"}
{"compound": "CC(=O)Oc1ccc(-c2csc(Nc3cccc(C)n3)n2)cc1", "Potency": "inconclusive: 22.4 µM [inhibitor, single point]"}
{"compound": "OC(COc1ccc2cc(Br)ccc2c1)CN1CCCC1", "note": "(configuration not stated)", "Potency": "inconclusive: 22.4 µM [inhibitor, single point]"}
{"compound": "CC(=O)Nc1nnc([N+](=O)[O-])s1", "Potency": "inconclusive: 25.1 µM [inhibitor, single point]"}
{"compound": "CCN(CC(=O)Nc1ccccc1C(F)(F)F)C(=O)c1ccccc1OCc1ccc(F)cc1", "Potency": "inactive"}
{"compound": "COc1ccc(OC)c(NC(=O)CN(c2ccc(C(C)C)cc2)S(=O)(=O)c2c(C)noc2C)c1", "Potency": "inconclusive: 35.5 µM [inhibitor, single point]"}
{"compound": "CCCNC(=O)Cc1ccsc1", "Potency": "inconclusive: 0.794 µM [inhibitor, full curve]"}
{"compound": "CN1CCN(C(=S)c2ccc(-c3cccc(Cl)c3Cl)o2)CC1", "Potency": "inconclusive: 5.01 µM [inhibitor, single point]"}
{"compound": "CC1(C)COC(c2ccc3c(c2)OCO3)OC1", "Potency": "inactive"}
{"compound": "COc1ccc(C(O)c2nc(-c3cccc(CO)c3)cs2)cc1", "note": "(configuration not stated)", "Potency": "inactive"}
{"compound": "CCOC(=O)C1(C)NC(c2ccc(OC)c(OC)c2)C2C(=O)N(c3cccc(C(C)=O)c3)C(=O)C21", "note": "(configuration not stated)", "Potency": "inactive"}
{"compound": "Cc1ccsc1C(=O)OC(C)C(=O)Nc1ccc(Cl)cn1", "note": "(configuration not stated)", "Potency": "inactive"}
{"compound": "COc1cccc(-n2c(COc3ccccc3C)nnc2SCC(=O)O)c1", "Potency": "inconclusive: 3.55 µM [inhibitor, single point]"}
{"compound": "Cc1ccc(NC(=O)c2ccc(OC(F)F)cc2)cc1S(=O)(=O)N(C)C", "Potency": "inconclusive: 35.5 µM [inhibitor, single point]"}
{"compound": "CCCCNC(=O)c1ccc(CS(=O)(=O)c2ccc(OC)cc2)o1", "Potency": "inactive"}
{"compound": "OC(COc1ccc(CNCCc2ccc(C(F)(F)F)cc2)cc1)CN1CCCCC1", "note": "(configuration not stated)", "Potency": "inconclusive: 35.5 µM [inhibitor, single point]"}
{"compound": "CCOC(=O)c1c(N)sc(C(O)(C(F)(F)F)C(F)(F)F)c1-c1ccc(Cl)cc1", "Potency": "inconclusive: 35.5 µM [inhibitor, single point]"}
{"compound": "CN(Cc1ccccc1)C(=O)c1ccc2c(c1)N(Cc1ccccc1Cl)C(=O)c1ccccc1S2", "Potency": "inactive"}
{"compound": "CCN1C(=O)c2ccccc2S(=O)c2ccc(C(=O)N3CCN(c4cc(Cl)ccc4C)CC3)cc21", "note": "(configuration not stated)", "Potency": "inconclusive: 0.447 µM [inhibitor, full curve, poor fit]"}
{"compound": "O=C(Nc1cc(S(=O)(=O)Nc2ccc(Cl)cc2)ccc1O)c1ccc(F)cc1F", "Potency": "inconclusive: 7.94 µM [inhibitor, partial curve, poor fit]"}
{"compound": "COc1ccccc1C(=O)N1CCN(C(=O)[C@H]2O[C@@H](n3cnc4c(N)ncnc43)[C@H](O)[C@@H]2O)CC1", "Potency": "inconclusive: 3.55 µM [inhibitor, single point]"}
{"compound": "CC(=O)Nc1cccc(-c2csc(C(O)c3ccc(F)c(F)c3)n2)c1", "note": "(configuration not stated)", "Potency": "inconclusive: 28.2 µM [inhibitor, partial curve, poor fit]"}
{"compound": "Cc1ccccc1CN1CCC(CNC(=O)c2c(C)oc3ncnc(N4CCCCC4)c23)CC1", "Potency": "inconclusive: 12.6 µM [inhibitor, partial curve]"}
{"compound": "O=C(NNC(=S)Nc1ccc(Br)cc1)c1cccnc1", "Potency": "inactive"}
{"compound": "COC1=C(Nc2ccccc2)C(=O)C(OC)=C(Nc2ccccc2)C1=O", "Potency": "inactive"}
{"compound": "COc1c(C)cc(C(O)c2ncc(-c3ccccc3F)[nH]2)cc1C", "note": "(configuration not stated)", "Potency": "inactive"}
{"compound": "O=C(CCCl)Nc1nc2c(s1)CCc1ccccc1-2", "Potency": "inconclusive: 35.5 µM [inhibitor, single point]"}
{"compound": "Cc1noc(NS(=O)(=O)c2ccc(N/C=C\\C(=O)c3ccc(F)cc3)cc2)c1C", "Potency": "inconclusive: 35.5 µM [inhibitor, single point]"}
{"compound": "COc1cccc(Nc2nc(-c3sc(N)nc3C)cs2)c1", "Potency": "inactive"}
{"compound": "CCOc1ccc(CCNC(=O)Cn2nc(CC)n3c(cc4ccccc43)c2=O)cc1", "Potency": "inactive"}
{"compound": "CCCCCC(=O)NC(Nc1ccc(S(N)(=O)=O)cc1)C(Cl)(Cl)Cl", "note": "(configuration not stated)", "Potency": "inconclusive: 22.4 µM [inhibitor, single point]"}
{"compound": "CC(C)C(=O)Nc1cc(S(=O)(=O)Nc2ccc(Cl)cc2)ccc1Cl", "Potency": "inconclusive: 35.5 µM [inhibitor, single point]"}
{"compound": "Cc1cccc(OC(C)C(=O)N2CCCc3ccccc32)c1", "note": "(configuration not stated)", "Potency": "inconclusive: 7.94 µM [inhibitor, partial curve]"}
{"compound": "O=C(N/N=C/c1c[nH]c2ccccc12)C1CC1c1ccccc1", "note": "(configuration not stated)", "Potency": "inconclusive: 20 µM [inhibitor, single point]"}
{"compound": "Cc1cccc(OCC(=O)N(Cc2cccs2)c2ccc(Cl)cc2)c1C", "Potency": "inconclusive: 35.5 µM [inhibitor, partial curve, poor fit]"}
{"compound": "CC(C)CC(NC(=O)C(COCc1ccccc1)NC(=O)OC(C)(C)C)C(=O)NN", "note": "(configuration not stated) (Boc-Ser(Bn)-Leu-NHNH2; configuration not given here)", "Potency": "inconclusive: 15.8 µM [inhibitor, single point]"}
{"compound": "CCOC(=O)c1ccc(-n2c(=O)[nH]c3ccccc3c2=O)cc1", "Potency": "inactive"}
{"compound": "Cc1ccc(C)c(-n2c(Cc3cccs3)n[nH]c2=S)c1", "Potency": "inconclusive: 35.5 µM [inhibitor, single point]"}
{"compound": "O=C(NC(=S)Nc1ccccc1[N+](=O)[O-])c1cncc(Br)c1", "Potency": "inactive"}
{"compound": "Cc1cccnc1NCc1ccc(O)c2ncccc12", "Potency": "inconclusive: 22.4 µM [inhibitor, single point]"}
{"compound": "CCCCN(CCCC)C(=O)c1cc2c(=O)n3cccc(C)c3nc2s1", "Potency": "inactive"}
{"compound": "Cc1ccc2nc(N3C(=O)C(O)=C(C(=O)c4ccco4)C3c3cccs3)sc2c1", "note": "(configuration not stated)", "Potency": "inconclusive: 0.282 µM [inhibitor, full curve, poor fit]"}
{"compound": "CCOC(=O)c1c(C)nc2sc3c(=O)n(-c4ccc(C(C)=O)cc4)cnc3c2c1-c1ccc(Cl)cc1", "Potency": "inconclusive: 35.5 µM [inhibitor, single point]"}
{"compound": "CCc1ccc(NC(=O)c2sc(-n3nc(C)c(Cc4ccc(OC)cc4)c3C)nc2C)cc1", "Potency": "inactive"}
{"compound": "CCOC(=O)N1CCN(C(=O)CSc2ccc(Cl)cc2)CC1", "Potency": "inconclusive: 3.16 µM [inhibitor, single point]"}
{"compound": "CC(O)(c1cccnc1)c1nc(-c2ccc3c(c2)OCO3)cs1", "note": "(configuration not stated)", "Potency": "inactive"}
{"compound": "O=C(NCC1CCN(Cc2cccc(Cl)c2)CC1)Nc1cc(Cl)ccc1Cl", "Potency": "inconclusive: 35.5 µM [inhibitor, single point]"}
{"compound": "COc1ccc2c(CC(=O)NC3CCCc4ccccc43)coc2c1", "note": "(configuration not stated)", "Potency": "inconclusive: 35.5 µM [inhibitor, single point]"}
{"compound": "CCCCN(C)C(=O)Cn1ncc2c3ccccc3n(CCC)c2c1=O", "Potency": "inconclusive: 2.82 µM [inhibitor, partial curve]"}
{"compound": "Cc1cc(NC(=O)CN2CCOCC2)n(-c2nc3ccccc3s2)n1", "Potency": "inconclusive: 6.31 µM [inhibitor, single point]"}
{"compound": "Cc1ccc(NC(=O)CCN2C(=O)c3ccccc3S2(=O)=O)cc1F", "Potency": "inconclusive: 3.55 µM [inhibitor, single point]"}
{"compound": "Cc1ccc(C(=O)Nc2ccc(-c3cn4cccnc4n3)cc2)cc1C", "Potency": "inconclusive: 12.6 µM [inhibitor, partial curve, poor fit]"}
{"compound": "CN(CC(=O)Nc1ccc(F)c(F)c1F)C(=O)C1CCCO1", "note": "(configuration not stated)", "Potency": "inactive"}
{"compound": "COc1ccccc1CNc1ccc(-c2nc(-c3cccnc3)no2)cc1[N+](=O)[O-]", "Potency": "inconclusive: 0.112 µM [inhibitor, full curve, poor fit]"}
{"compound": "CCOC(=O)C1Oc2ccccc2C(c2ccc(F)cc2)=C1C(=O)OC", "note": "(configuration not stated)", "Potency": "inconclusive: 12.6 µM [inhibitor, partial curve, poor fit]"}
{"compound": "O=C1CCCN1CCC1CCN(C2CC(=O)N(Cc3ccc(N4CCCC4=O)cc3)C2=O)CC1", "note": "(configuration not stated)", "Potency": "inconclusive: 15.8 µM [inhibitor, partial curve, poor fit]"}
{"compound": "Cc1csc(SCC(=O)N(C)CC(=O)Nc2ccccc2Cl)n1", "Potency": "inconclusive: 0.316 µM [inhibitor, full curve, poor fit]"}
{"compound": "COc1ccc(NC(=S)NCc2ccc(F)cc2)cc1", "Potency": "inconclusive: 35.5 µM [inhibitor, single point]"}
{"compound": "Cc1ccc(CSc2nnc(-c3ccc(NS(=O)(=O)c4ccccc4)cc3)o2)cc1", "Potency": "inconclusive: 15.8 µM [inhibitor, partial curve, poor fit]"}
{"compound": "COc1cccc2c(=O)c(C(=O)NCc3cccs3)c[nH]c12", "Potency": "inactive"}
{"compound": "O=C(Nc1ccc(-c2cn3ccccc3n2)cc1)c1cccs1", "Potency": "inconclusive: 35.5 µM [inhibitor, single point]"}
{"compound": "CCOc1ccc(N2C(=O)CC(N(Cc3ccco3)C(=O)CC)C2=O)cc1", "note": "(configuration not stated)", "Potency": "inconclusive: 35.5 µM [inhibitor, single point]"}
{"compound": "Cc1cc(C)n2nc(CCCO)nc2n1", "Potency": "inconclusive: 0.891 µM [inhibitor, partial curve, poor fit]"}
{"compound": "O=C(CCn1c(=O)[nH]c2ccccc2c1=O)N1CCN(c2ccc(Cl)cc2)CC1", "Potency": "inactive"}
{"compound": "CCOC(=O)c1cccc(NC(=O)[C@@H](c2ccccc2)N2Cc3ccccc3C2=O)c1", "Potency": "inconclusive: 11.2 µM [inhibitor, partial curve, poor fit]"}
